One molecule from paper PMC4441479 can be followed below.

The chains behind the UniProt entries cited, without tags or fusion partners.
UniProt Q9UN81: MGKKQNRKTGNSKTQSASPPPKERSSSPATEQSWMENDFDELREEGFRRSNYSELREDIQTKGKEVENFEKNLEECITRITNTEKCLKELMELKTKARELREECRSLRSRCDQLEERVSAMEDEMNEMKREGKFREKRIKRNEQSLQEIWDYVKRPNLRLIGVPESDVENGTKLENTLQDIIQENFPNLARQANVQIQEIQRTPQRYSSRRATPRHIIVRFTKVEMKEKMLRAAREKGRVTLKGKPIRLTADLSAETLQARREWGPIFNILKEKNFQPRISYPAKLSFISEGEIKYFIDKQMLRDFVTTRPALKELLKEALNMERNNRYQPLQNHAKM

For assay [1], the target named is T1, FLAG-tagged MOV10 (human) (UniProt Q9HCE1).
T1 sequence: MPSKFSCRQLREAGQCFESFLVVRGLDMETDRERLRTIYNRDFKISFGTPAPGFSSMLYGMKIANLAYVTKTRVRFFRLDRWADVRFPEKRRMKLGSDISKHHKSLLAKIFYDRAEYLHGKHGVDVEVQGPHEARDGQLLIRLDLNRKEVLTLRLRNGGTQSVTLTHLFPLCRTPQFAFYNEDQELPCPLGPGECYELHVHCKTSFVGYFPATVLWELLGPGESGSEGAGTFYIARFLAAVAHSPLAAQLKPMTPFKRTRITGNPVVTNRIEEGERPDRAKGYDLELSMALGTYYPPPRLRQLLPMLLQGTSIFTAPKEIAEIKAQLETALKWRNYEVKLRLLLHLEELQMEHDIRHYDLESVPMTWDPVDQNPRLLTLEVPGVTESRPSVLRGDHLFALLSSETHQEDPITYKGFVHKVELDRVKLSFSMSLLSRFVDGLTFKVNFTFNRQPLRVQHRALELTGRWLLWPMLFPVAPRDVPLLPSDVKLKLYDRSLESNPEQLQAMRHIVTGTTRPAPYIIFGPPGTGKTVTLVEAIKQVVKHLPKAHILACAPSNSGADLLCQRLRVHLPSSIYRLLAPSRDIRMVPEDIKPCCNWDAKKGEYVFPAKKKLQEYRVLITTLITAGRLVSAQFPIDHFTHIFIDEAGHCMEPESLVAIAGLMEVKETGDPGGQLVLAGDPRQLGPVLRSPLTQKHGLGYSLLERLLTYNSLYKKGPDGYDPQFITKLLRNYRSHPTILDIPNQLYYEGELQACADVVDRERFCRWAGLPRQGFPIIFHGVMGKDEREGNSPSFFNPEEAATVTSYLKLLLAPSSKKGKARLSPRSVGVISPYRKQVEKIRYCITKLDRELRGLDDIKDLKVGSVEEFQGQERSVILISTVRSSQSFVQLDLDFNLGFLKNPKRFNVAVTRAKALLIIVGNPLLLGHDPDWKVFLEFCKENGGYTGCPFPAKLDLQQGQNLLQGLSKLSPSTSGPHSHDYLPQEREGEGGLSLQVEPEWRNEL
As to the kind of experiment: co-IP; not told for this result (no figure cited); the sentence follows the co-IPs of ZAP and MOV10 of Fig 4C.

Assay [2] deals with L1-RP ORF1p with a tandem FLAG-HA tag fused to its C-terminus, expressed from pc-L1-1FH (human) (UniProt Q9UN81). The experiment in a line: co-IP; pc-L1-1FH (ORF1p-FLAG-HA) expressed in 293T cells with tagged test proteins or with endogenous ZAP; IP of L1 RNP complexes on α-FLAG agarose without RNase; Western blot. On the technique in general: A western blot detects proteins with antibodies after separation by electrophoresis.

These are yes or no findings as the source states them, for the method shown. In cells and extracts the contact can be indirect. Tags and fused reporters may be left off the sequences shown.

B1: rat HA-NZAP (domain or fragment, UniProt Q8K3Y6 1-254)
chain: MADPGVCCFITKILCAHGGRMTLEELLGEIRLPEAQLYELLETAGPDRFVLLETGGQAGITRSVVATTRARVCRRKYCQRPCDSLHLCKLNLLGRCHYAQSQRNLCKYSHDVLSEQNFQILKNHELSGLNQEELACLLVQSDPFFLPEICKSYKGEGRKQTCGQPQPCERLHICEHFTRGNCSYLNCLRSHNLMDRKVLTIMREHGLSPDVVQNIQDICNNKHARRNPPGTRAAHPHRRGGAHRDRSKSRDRFL
Regarding B1, the binding result in assay [1] and in assay [2] was “no binding” in each case.
